The list shows a part of the results.

This test addresses T1, OsWOX13 (Oryza sativa, UniProt Q5QMM3 1-267).
T1 sequence: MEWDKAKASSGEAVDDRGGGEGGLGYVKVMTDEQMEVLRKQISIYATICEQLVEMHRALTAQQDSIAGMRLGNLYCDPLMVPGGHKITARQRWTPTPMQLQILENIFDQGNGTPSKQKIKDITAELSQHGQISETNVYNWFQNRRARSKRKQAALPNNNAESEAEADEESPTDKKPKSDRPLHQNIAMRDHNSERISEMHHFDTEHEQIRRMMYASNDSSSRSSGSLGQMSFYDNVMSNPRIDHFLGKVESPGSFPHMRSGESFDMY
The test can be described thus: protein-binding microarray (RPBM); PBS, 2% BSA, 51.3 ng/ul salmon testes DNA, 50 uM zinc acetate, 200 nM TF, 25 C, 1 h; high values mean tight binding. To be noted: protein: recombinant; tags: N-terminal polyhistidine and DsRed monomer fusion (pET32a); label: CyDye5-dUTP incorporated in the synthesized complementary strand; 3' TTTTT single-stranded linker to array surface; dsDNA, one strand shown. An outline of the steps: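 An Axon 4000B scanner gave the binding signal as per-feature fluorescence intensity in arbitrary units. This followed washing of a custom Agilent array that had been incubated for 1 h at 25 °C with 200 nM protein in PBS, 2% BSA, salmon testes DNA and 50 µM zinc acetate. The proteins were transcription factors fused at the N-terminus to polyhistidine and DsRed, expressed in E. coli BL21-CodonPlus and purified on Ni–NTA.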
Take “TTTCATTATAATTGAGACTGTAAATCTCGTCTACTTTCTCCGGAGTCACCTAGTGCAG”: the binding signal was 17600 fluorescence intensity (a.u.). For the sequence “TGTAAATTGTCTCCGGCGGTTAATTCTTTTAATTAAGTTTCGGAGTCACCTAGTGCAG”, the binding signal was 4900 fluorescence intensity (a.u.). Regarding “AGATAATAATTATCAGTGGGTAATGATGTGGCACACTTACCGGAGTCACCTAGTGCAG”, the binding signal was 22300 fluorescence intensity (a.u.).

With “TGTGATACAATCATCTCTATGATTACCTCTAGGGCATATCCGGAGTCACCTAGTGCAG”, the binding signal is 17400 fluorescence intensity (a.u.). For “GCAATCATACTAGATTATTTGATTGGATCGTGTATCAGAACGGAGTCACCTAGTGCAG”, the binding signal is 30300 fluorescence intensity (a.u.). Turning to “TTTAATAGAAGAAACTGAATGCTAGGTAAGCCTAAACCTACGGAGTCACCTAGTGCAG”, the binding signal is 3690 fluorescence intensity (a.u.).

Consider “ATAAATTAACTAGATGAATTCAAATAAGAAGAAGAGCTGTCGGAGTCACCTAGTGCAG”, for which the binding signal is 35100 fluorescence intensity (a.u.).

As for “GATGAGATTTGTCTGCCCCGATTGGTTTTCTCCATTTCTTCGGAGTCACCTAGTGCAG”, the binding signal was 4060 fluorescence intensity (a.u.).

Consider “ATACCGCCATTAATTAGCATGTACTCACAAACTCTAAACACGGAGTCACCTAGTGCAG”, for which the binding signal was 7420 fluorescence intensity (a.u.). As to “GTGTCAATTATCTAGGTGGATTGGTTCCACCACAACGAACCGGAGTCACCTAGTGCAG”, the binding signal is 28600 fluorescence intensity (a.u.). “TTAAATGATTATCAAAACAAGACAATGATAATAAAGTAACCGGAGTCACCTAGTGCAG”: the binding signal was 7070 fluorescence intensity (a.u.). “CTCCCAGTCATTTTGGAATTAGTTCTGAAGATTGTGTTTGCGGAGTCACCTAGTGCAG”: the binding signal is 3290 fluorescence intensity (a.u.). In the case of “CACAGATCGATGGCTAATTAAACCATGCTCACACTGGCATCGGAGTCACCTAGTGCAG”, the binding signal was 4530 fluorescence intensity (a.u.). With “AAGAGCATAATAGATTATATAACCCAAGGTACAGACTGCGCGGAGTCACCTAGTGCAG”, the binding signal is 3410 fluorescence intensity (a.u.). As to “AAGTTAACATGATTAATTTGCTACTCCCTCCGTTTCACAACGGAGTCACCTAGTGCAG”, the binding signal was 18800 fluorescence intensity (a.u.). Consider “TCTCTTCCCAATCTACATTGCTAATTCCTCTCAATTGTATCGGAGTCACCTAGTGCAG”, for which the binding signal is 3220 fluorescence intensity (a.u.). As to “TCCTAAATGGATTGGCCATTTTCCCCTTCGACTATGTGAGCGGAGTCACCTAGTGCAG”, the binding signal was 39900 fluorescence intensity (a.u.). Take “GGACAAACATAATTAGGAGAGACCGCCACTTTATCCATCACGGAGTCACCTAGTGCAG”: the binding signal was 11100 fluorescence intensity (a.u.). As for “GCACTAATCAAGATACTAGCTCATAGTACAATGGTCTGGTCGGAGTCACCTAGTGCAG”, the binding signal is 8510 fluorescence intensity (a.u.). With “TTTACATAAATTACCCCTGACACCTAAGGGTGAGTTTGAGCGGAGTCACCTAGTGCAG”, the binding signal is 6540 fluorescence intensity (a.u.). As for “ACCAGATTAGCTATAACTTTTCAATTAACTATTCCCTAATCGGAGTCACCTAGTGCAG”, the figure is 25700 fluorescence intensity (a.u.).

Consider “CCATTCCTGTGATAGCCCTTAATGATCAGTTAGCATGCATCGGAGTCACCTAGTGCAG”, for which the binding signal was 4450 fluorescence intensity (a.u.). Turning to “TCATCTGCACTAATTAAATAATTGACAACAAAAGAATGAACGGAGTCACCTAGTGCAG”, the binding signal is 12400 fluorescence intensity (a.u.). In the case of “TGCTGGTTTGTTGATTGCTTTTATATCAAACTGGGAGCTACGGAGTCACCTAGTGCAG”, the binding signal was 17800 fluorescence intensity (a.u.).

For the sequence “ACACATGATTAATCTAATTTTAATTATTACAAACTTAAATCGGAGTCACCTAGTGCAG”, the binding signal is 28500 fluorescence intensity (a.u.). With “AGTTGTGATTATTGTTTAACCTATTTCCCTGAAGAAATTCCGGAGTCACCTAGTGCAG”, the binding signal was 14800 fluorescence intensity (a.u.).

In the case of “AGTATCACTTTGATTAATTACTAACCCTACTAGTATCTCTCGGAGTCACCTAGTGCAG”, the binding signal was 11200 fluorescence intensity (a.u.). “TCCTGACAGGATGGGGCGAGGCGTGCGTCAGACCGCCTGTCGGAGTCACCTAGTGCAG”: the binding signal is 12000 fluorescence intensity (a.u.). As for “TACTATCAACTCTGTTAAAATTGAAGAATTTTGACTAAAACGGAGTCACCTAGTGCAG”, the figure is 3310 fluorescence intensity (a.u.). Consider “TTAATCATAATTTGTGCTAATTAGTAATCTTCATTTGTTTCGGAGTCACCTAGTGCAG”, for which the binding signal was 46700 fluorescence intensity (a.u.). Consider “CATTTTAATTGACGCTTTGGACAATGACACGCTCTACAAGCGGAGTCACCTAGTGCAG”, for which the binding signal is 32200 fluorescence intensity (a.u.).

“GTCATGATCCTCGTAATTACACATTGCCATTCTTAGCAAACGGAGTCACCTAGTGCAG”: the binding signal was 6790 fluorescence intensity (a.u.). On to “CCTAATTATTCTTCTTAAGTACATTCTTTCCTTGTCATTACGGAGTCACCTAGTGCAG”, for which the binding signal was 29200 fluorescence intensity (a.u.). On to “ATGATTTGCTTCATGTTGTCTACTAATGTTATTACACGTACGGAGTCACCTAGTGCAG”, for which the binding signal was 14600 fluorescence intensity (a.u.). “TTTAATCATAATTCTCTTATACATTGCGTATTAGAAAATTCGGAGTCACCTAGTGCAG”: the binding signal was 4370 fluorescence intensity (a.u.). The value for “TCTTAATTTCTCCAGACCAGCTACAAGCCTTCAACCACATCGGAGTCACCTAGTGCAG” was 11600 fluorescence intensity (a.u.). As for “GTTTGATAGCATCTTTAACCGTACATTCATGAGATGCAGGCGGAGTCACCTAGTGCAG”, the binding signal was 7840 fluorescence intensity (a.u.). Regarding “TCGGAAATGATTTCTCCTCGTCCCGATTTGACCTCTGGTTCGGAGTCACCTAGTGCAG”, the binding signal was 11300 fluorescence intensity (a.u.). Take “TTTTCCATCAATCATCAAGATGAATATAATGTATATGACTCGGAGTCACCTAGTGCAG”: the binding signal was 25300 fluorescence intensity (a.u.). For the sequence “ACCCTCATCTCTTCTCCTGATTGAATTGTCTTCCTCAACCCGGAGTCACCTAGTGCAG”, the binding signal was 30400 fluorescence intensity (a.u.). As for “TGATCAATTGATACTGCAATCAAGGAAGAACACCATAGCTCGGAGTCACCTAGTGCAG”, the binding signal was 3550 fluorescence intensity (a.u.). Turning to “CTTTTCAAACTGTTAAATGATAAATGATGTGTTTCGTACACGGAGTCACCTAGTGCAG”, the binding signal is 3580 fluorescence intensity (a.u.).

Source of the values: PMC7819943, “Rice protein-binding microarrays: a tool to detect cis-acting elements near promoter regions in rice”.
